The full ranking holds about 33,000 sequences; the median of “E-score (-0.5 to 0.5)” is about -0.035, and the highest 2% start at about 0.35. This is one part of the list.

The assay has as its target T1, Pdr3 (UniProt P33200).
T1 sequence: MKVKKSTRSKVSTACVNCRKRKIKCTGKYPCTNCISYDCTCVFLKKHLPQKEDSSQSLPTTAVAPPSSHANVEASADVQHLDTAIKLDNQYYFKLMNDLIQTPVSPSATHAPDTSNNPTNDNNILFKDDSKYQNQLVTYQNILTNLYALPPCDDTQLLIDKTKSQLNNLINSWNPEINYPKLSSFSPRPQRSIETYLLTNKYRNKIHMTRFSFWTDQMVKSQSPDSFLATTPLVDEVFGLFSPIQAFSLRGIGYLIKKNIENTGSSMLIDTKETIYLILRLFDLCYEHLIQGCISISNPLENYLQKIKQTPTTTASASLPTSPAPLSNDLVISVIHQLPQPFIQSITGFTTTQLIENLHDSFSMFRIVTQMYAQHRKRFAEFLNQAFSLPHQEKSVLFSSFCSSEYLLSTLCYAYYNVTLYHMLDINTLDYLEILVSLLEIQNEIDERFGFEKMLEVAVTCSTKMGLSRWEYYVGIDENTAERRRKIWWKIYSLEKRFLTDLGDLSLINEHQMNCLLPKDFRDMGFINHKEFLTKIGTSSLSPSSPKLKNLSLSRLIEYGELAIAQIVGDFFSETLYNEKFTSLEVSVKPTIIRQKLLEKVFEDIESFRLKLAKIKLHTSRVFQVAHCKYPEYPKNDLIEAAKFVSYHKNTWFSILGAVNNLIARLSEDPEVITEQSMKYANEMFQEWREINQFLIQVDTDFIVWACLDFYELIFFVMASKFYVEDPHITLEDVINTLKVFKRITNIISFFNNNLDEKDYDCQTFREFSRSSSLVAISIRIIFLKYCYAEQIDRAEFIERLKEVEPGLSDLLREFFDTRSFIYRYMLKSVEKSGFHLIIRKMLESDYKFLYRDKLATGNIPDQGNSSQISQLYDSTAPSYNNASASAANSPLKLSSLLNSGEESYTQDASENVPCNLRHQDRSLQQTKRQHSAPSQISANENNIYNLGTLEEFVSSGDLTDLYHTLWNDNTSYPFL
Put plainly: PBM E-score (8-mer binding enrichment) (E-score (-0.5 to 0.5)); higher = stronger / more preferred TF binding; most listed sequences are background and not binding sites. Conditions: protein concentration: 200 nM; construct: GST-full length. Summed up: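 Masliner-normalised scans of fluorescent anti-GST signal were the basis for scoring. That signal came from GST-tagged yeast transcription factors applied at about 100-200 nM to double-stranded universal all-10-mer Agilent arrays on fresh or once-stripped slides. Each ungapped eight-base word, pooled with its reverse complement, received an E-score from the Universal PBM Analysis Suite.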
Consider TTCGCCAA, for which the “PBM E-score” value was -0.128.

With ACAGTGAC, the “PBM E-score” value stood at 0.0756.

Regarding CATCGGCG, the “PBM E-score” value turned out to be 0.105.

For the sequence CGTCAATA, the “PBM E-score” value is -0.13.

As to ATGCGGAC, the “PBM E-score” value worked out at 0.134.

Take GCTTCTCC: the “PBM E-score” value was -0.0434.

Take ATTGCCAG: the “PBM E-score” value was found to be 0.0932.

As to AATACCAC, the “PBM E-score” value is -0.0169.

Consider ACTGTCCT, for which the “PBM E-score” value turned out to be 0.0354.

For the sequence AATTTCGG, the “PBM E-score” value was 0.161.

AAATTTTG: the “PBM E-score” value is -0.243.

As to AGCACTGC, the “PBM E-score” value was -0.274.

Turning to AAGTCAGC, the “PBM E-score” value is 0.0449.

As to ATTTGGCG, the “PBM E-score” value was -0.14.

For AGACTCGA, the “PBM E-score” value is -0.271.

Regarding GGTACCAC, the “PBM E-score” value was -0.0409.

As to GCATAAGA, the “PBM E-score” value was -0.00861.

On to CTCTGGAC, for which the “PBM E-score” value is -0.0149.

As for CTCGGCTA, the “PBM E-score” value was 0.186.

For ATAGTACC, the “PBM E-score” value is -0.00506.

TAGCCCAA: the “PBM E-score” value was -0.0827.

As to CAACAAAC, the “PBM E-score” value was 0.0447.

As for GTGCACAC, the “PBM E-score” value is -0.113.

For CTAATCCA, the “PBM E-score” value is -0.065.

In the case of GAACTATC, the “PBM E-score” value is 0.0619.

For CAGAACCG, the “PBM E-score” value stood at 0.116.

With CCGCCACC, the “PBM E-score” value is 0.0657.

Consider ACTCTGCG, for which the “PBM E-score” value was -0.0457.

As for ATAGCGCG, the “PBM E-score” value came out at 0.0942.

On to ACACTCTG, for which the “PBM E-score” value was -0.149.

On to AAACTGGA, for which the “PBM E-score” value was -0.124.

As to CATTACAA, the “PBM E-score” value turned out to be 0.00095.

For the sequence TCAACCGA, the “PBM E-score” value came out at 0.148.

For the sequence CAGTATGG, the “PBM E-score” value was -0.0259.

For CGATCGTC, the “PBM E-score” value amounted to 0.145.

As for CCACAGTC, the “PBM E-score” value is -0.3.

On to CAGCGTAA, for which the “PBM E-score” value was -0.0367.

In the case of AAACATAT, the “PBM E-score” value was found to be 0.106.

As for CCCGTCCC, the “PBM E-score” value amounted to 0.195.

As to CGAGCATA, the “PBM E-score” value was -0.0939.

Consider GTAACTGA, for which the “PBM E-score” value is -0.311.

For the sequence CAAGGCTC, the “PBM E-score” value was -0.356.

Consider AAGTGCCA, for which the “PBM E-score” value is -0.0807.

Turning to GTTGTGGA, the “PBM E-score” value was -0.0502.

As to CGAAAAAC, the “PBM E-score” value was 0.00325.

On to GGATGCAA, for which the “PBM E-score” value is 0.0676.

For the sequence AAACGTCG, the “PBM E-score” value was determined as 0.0829.

As to AATTATGT, the “PBM E-score” value is -0.076.

Take GAACTGGC: the “PBM E-score” value came to 0.101.

CCGAATCG: the “PBM E-score” value turned out to be 0.259.

Consider AGACCACA, for which the “PBM E-score” value is -0.095.

As to AGAAGAGC, the “PBM E-score” value was -0.112.

As for ACTACGCG, the “PBM E-score” value was found to be 0.0457.

For the sequence ATAGGGGC, the “PBM E-score” value was -0.0113.

Consider ACCGTTCC, for which the “PBM E-score” value worked out at 0.364.

Regarding CCGTGAGC, the “PBM E-score” value amounted to 0.0934.

Take AGAGACGA: the “PBM E-score” value was -0.103.

Turning to GCAGTGGC, the “PBM E-score” value amounted to 0.0708.

For the sequence CACCAGTA, the “PBM E-score” value is -0.12.

Take CCCACCAA: the “PBM E-score” value is -0.0735.

As to AAGGCCCT, the “PBM E-score” value was -0.0921.

Take CTCAAAGC: the “PBM E-score” value is -0.0214.

In the case of AGTCGCAA, the “PBM E-score” value was found to be 0.0426.

Take ATTAATAG: the “PBM E-score” value came to 0.0226.

Consider GAGAGCTC, for which the “PBM E-score” value is -0.0913.

With AGATCCAG, the “PBM E-score” value was found to be 0.112.

As to ATCAGTTC, the “PBM E-score” value came out at 0.141.

With AATCGCGT, the “PBM E-score” value was found to be 0.0675.

On to CTCCACTA, for which the “PBM E-score” value is -0.0961.

On to AGTTGGAA, for which the “PBM E-score” value is -0.145.

As for AATCGGTA, the “PBM E-score” value is -0.0123.

With TCACCTAA, the “PBM E-score” value stood at 0.0222.

In the case of GAATGTGA, the “PBM E-score” value was -0.141.

For CATTCGCA, the “PBM E-score” value is -0.227.

On to TGGTCCAA, for which the “PBM E-score” value was -0.0168.

Regarding CTAGGGAG, the “PBM E-score” value was -0.205.

As to AGGTAGGA, the “PBM E-score” value was -0.166.

Regarding GACCTAAA, the “PBM E-score” value turned out to be 0.0666.

As to GAAAGCAA, the “PBM E-score” value was determined as 0.17.

As to ACACGATA, the “PBM E-score” value came to 0.0566.

Consider AGCGTACG, for which the “PBM E-score” value is -0.129.

For AGGGTCAT, the “PBM E-score” value is -0.26.

As to AACGTCGT, the “PBM E-score” value turned out to be 0.0532.

With GTGTAGTA, the “PBM E-score” value turned out to be 0.0739.

Take CTGGCTGA: the “PBM E-score” value is -0.0512.

For ACCTTAGC, the “PBM E-score” value was -0.138.

In the case of CCGTAAGA, the “PBM E-score” value is -0.0199.

Take CTAGAACA: the “PBM E-score” value was 0.0618.

In the case of AACCCCGA, the “PBM E-score” value amounted to 0.258.

Regarding TGAGCGAA, the “PBM E-score” value is 0.0996.

Take GGGCCCCC: the “PBM E-score” value was -0.0273.

GGTTTCTA: the “PBM E-score” value amounted to 0.0811.

Consider CTGTGTTA, for which the “PBM E-score” value was -0.0213.

For the sequence ATTATCCA, the “PBM E-score” value stood at 0.0658.
